Each structure is given as a SMILES string. Bounds are passed on as bounds.

The target of the first experiment is human CB2 receptor (hCB2) (Homo sapiens, UniProt P34972). Description: cell-based. The experiment is classed as cell-based.
Chain of human CB2 receptor (hCB2) (P34972 whole entry): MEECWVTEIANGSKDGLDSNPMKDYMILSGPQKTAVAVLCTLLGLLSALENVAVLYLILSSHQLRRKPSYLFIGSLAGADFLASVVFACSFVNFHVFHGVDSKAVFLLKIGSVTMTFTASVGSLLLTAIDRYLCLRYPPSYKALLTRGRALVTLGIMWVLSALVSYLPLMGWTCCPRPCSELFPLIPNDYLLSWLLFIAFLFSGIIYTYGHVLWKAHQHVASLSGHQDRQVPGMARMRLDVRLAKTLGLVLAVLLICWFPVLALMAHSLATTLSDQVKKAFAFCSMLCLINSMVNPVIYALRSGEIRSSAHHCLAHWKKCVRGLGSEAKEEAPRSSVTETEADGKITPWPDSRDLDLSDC
Details: not given
The EC50 is the midpoint of the concentration-response curve. With `CN1CCCn2c(-c3ccccc3)nc(C(=O)N[C@H](C(=O)O)C(C)(C)C)c2C1` [Compound 471, (S)-3,3-dimethyl-2-(8-methyl-3-phenyl-6,7,8,9-tetrahydro-5H-imidazo[1,5-a][1,4]diazepine-1-carboxamido)butanoic acid], the EC50 was > 10000 nM.
Consider `CNC(=O)[C@@H](NC(=O)c1nc(-c2ccc(Cl)cc2F)n2c1CN(C1CCNCC1)CCC2)C(C)(C)C` [Compound 526, (S)-3-(4-chloro-2-fluorophenyl)-N-(3,3-dimethyl-1-(methylamino)-1-oxobutan-2-yl)-8-(piperidin-4-yl)-6,7,8,9-tetrahydro-5H-imidazo[1,5-a][1,4]diazepine-1-carboxamide], for which the EC50 is > 10000 nM.
`CNC(=O)[C@@H](NC(=O)c1nc(-c2ccccc2)n2c1CN(C(=O)OC(C)(C)C)CCC2)C(C)(C)C` [Compound 312, (S)-tert-butyl 1-(3,3-dimethyl-1-(methylamino)-1-oxobutan-2-ylcarbamoyl)-3-phenyl-6,7-dihydro-5H-imidazo[1,5-a][1,4]diazepine-8(9H)-carboxylate]: the EC50 is > 10000 nM.
Still for that read-out and setting: for `CNC(=O)[C@@H](NC(=O)c1nc(-c2ccccc2)n2c1CN(C(C)=O)CCC2)C(C)(C)C` [Compound 463, (S)-8-acetyl-N-(3,3-dimethyl-1-(methylamino)-1-oxobutan-2-yl)-3-phenyl-6,7,8,9-tetrahydro-5H-imidazo[1,5-a][1,4]diazepine-1-carboxamide] the value was > 10000 nM.
Same read-out and setting: the figure for `CN1CCn2c(-c3ccc(Cl)cc3F)nc(C(=O)N3CCC(C(=O)N4CCOCC4)CC3)c2C1` [Compound 226, (3-(4-chloro-2-fluorophenyl)-7-methyl-5,6,7,8-tetrahydroimidazo[1,5-a]pyrazin-1-yl)(4-(morpholine-4-carbonyl)piperidin-1-yl)methanone] is > 10000 nM.
Turning to `CNC(=O)[C@@H](NC(=O)c1nc(-c2cccc(C(F)(F)F)c2)n2c1CNCC2)C(C)(C)C` [Compound 3, (S)-N-(3,3-dimethyl-1-(methylamino)-1-oxobutan-2-yl)-3-(3-(trifluoromethyl)phenyl)-5,6,7,8-tetrahydroimidazo[1,5-a]pyrazine-1-carboxamide], the EC50 was > 10000 nM.
The same measure, in the same setting: for `CCS(=O)(=O)N1CCn2c(-c3ccc(Cl)cc3)nc(C(=O)NCCC(C)C)c2C1` [Compound 116, 3-(4-chlorophenyl)-7-(ethylsulfonyl)-N-isopentyl-5,6,7,8-tetrahydroimidazo[1,5-a]pyrazine-1-carboxamide] the value was > 10000 nM; for `CNC(=O)[C@@H](NC(=O)c1nc(-c2ccc(N3CCOCC3)cc2)n2c1CN(C)CCC2)C(C)(C)C` [Compound 378, (S)-N-(3,3-dimethyl-1-(methylamino)-1-oxobutan-2-yl)-8-methyl-3-(4-morpholinophenyl)-6,7,8,9-tetrahydro-5H-imidazo[1,5-a][1,4]diazepine-1-carboxamide], > 10000 nM.
Same read-out and setting: for `CCS(=O)(=O)N1CCn2c(-c3ccccc3)nc(C(=O)N[C@@H](C)c3ccccc3)c2C1` [Compound 113, (S)-7-(ethylsulfonyl)-3-phenyl-N-(1-phenylethyl)-5,6,7,8-tetrahydroimidazo[1,5-a]pyrazine-1-carboxamide] the value was > 10000 nM.
Take `Cc1ccc(-c2nc(C(=O)N[C@H](c3nc(C)no3)C(C)(C)C)c3n2CCCNC3)c(F)c1` [Compound 520, (S)-N-(2,2-dimethyl-1-(3-methyl-1,2,4-oxadiazol-5-yl)propyl)-3-(2-fluoro-4-methylphenyl)-6,7,8,9-tetrahydro-5H-imidazo[1,5-a][1,4]diazepine-1-carboxamide]: the EC50 was > 10000 nM.

Still in this experiment, the particulars now being: agonist or inverse agonist at hCB2.
Consider `CNC(=O)[C@@H](NC(=O)c1nc(-c2ccc(C(=O)OC)cc2F)n2c1CN(C)CCC2)C(C)(C)C` [Compound 387, (S)-methyl 4-(1-(3,3-dimethyl-1-(methylamino)-1-oxobutan-2-ylcarbamoyl)-8-methyl-6,7,8,9-tetrahydro-5H-imidazo[1,5-a][1,4]diazepin-3-yl)-3-fluorobenzoate], for which the “+/− HCB2” value is on record as “+”.
On to `CC(C)C[C@H](NC(=O)c1nc(C2CCCCC2)n2c1CN(C)CCC2)C(N)=O` [Compound 570, (S)-N-(1-amino-4-methyl-1-oxopentan-2-yl)-3-cyclohexyl-8-methyl-6,7,8,9-tetrahydro-5H-imidazo[1,5-a][1,4]diazepine-1-carboxamide], for which the “+/− HCB2” value is given as “+”.
`CNC(=O)[C@@H](NC(=O)c1nc(Cl)n2c1CN(C)CCC2)C(C)(C)C` [Compound 598, (S)-3-chloro-N-(3,3-dimethyl-1-(methylamino)-1-oxobutan-2-yl)-8-methyl-6,7,8,9-tetrahydro-5H-imidazo[1,5-a][1,4]diazepine-1-carboxamide]: the “+/− HCB2” value is “+”.
As for `CN1CCCn2c(-c3ccccc3)nc(C(=O)N[C@H](C(=O)N(C)C)C(C)(C)C)c2C1` [Compound 557, (S)-N-(1-(dimethylamino)-3,3-dimethyl-1-oxobutan-2-yl)-8-methyl-3-phenyl-6,7,8,9-tetrahydro-5H-imidazo[1,5-a][1,4]diazepine-1-carboxamide], the “+/− HCB2” value was “+”.
For `COC(=O)N1CCn2c(-c3ccccc3)nc(C(=O)NC3C4(C)CCC(C4)C3(C)C)c2C1` (centres unmarked) [Compound 178, methyl 3-phenyl-1-(1,3,3-trimethylbicyclo[2.2.1]heptan-2-ylcarbamoyl)-5,6-dihydroimidazo[1,5-a]pyrazine-7(8H)-carboxylate], the “+/− HCB2” value is listed as “+”.
Take `CN1CCCn2c(-c3ccc(Cl)c(F)c3)nc(C(=O)N[C@H](C(=O)N(C)C)C(C)(C)C)c2C1` [Compound 560, (S)-3-(4-chloro-3-fluorophenyl)-N-(1-(dimethylamino)-3,3-dimethyl-1-oxobutan-2-yl)-8-methyl-6,7,8,9-tetrahydro-5H-imidazo[1,5-a][1,4]diazepine-1-carboxamide]: the “+/− HCB2” value is reported as “+”.
Same read-out and setting: the entry for `CNC(=O)[C@@H](NC(=O)c1nc(-c2ccccc2)n2c1CN(CCO)CC2)C(C)(C)C` [Compound 153, (S)-N-(3,3-dimethyl-1-(methylamino)-1-oxobutan-2-yl)-7-(2-hydroxyethyl)-3-phenyl-5,6,7,8-tetrahydroimidazo[1,5-a]pyrazine-1-carboxamide] is “+”.
`CNC(=O)[C@@H](NC(=O)c1nc(-c2ccc(C)cc2F)n2c1CN(C)CC2)C(C)(C)C` [Compound 249, (S)-N-(3,3-dimethyl-1-(methylamino)-1-oxobutan-2-yl)-3-(2-fluoro-4-methylphenyl)-7-methyl-5,6,7,8-tetrahydroimidazo[1,5-a]pyrazine-1-carboxamide]: the “+/− HCB2” value is recorded as “+”.
Regarding `CNC(=O)[C@@H](NC(=O)c1nc(-c2ccc(F)cc2)n2c1CNCC2)C(C)(C)C` [Compound 6, (S)-N-(3,3-dimethyl-1-(methylamino)-1-oxobutan-2-yl)-3-(4-fluorophenyl)-5,6,7,8-tetrahydroimidazo[1,5-a]pyrazine-1-carboxamide], the “+/− HCB2” value is recorded as “+”.
Consider `CNC(=O)[C@@H](NC(=O)c1nc(-c2cccnc2)n2c1CNCC2)C(C)(C)C` [Compound 14, (S)-N-(3,3-dimethyl-1-(methylamino)-1-oxobutan-2-yl)-3-(pyridin-3-yl)-5,6,7,8-tetrahydroimidazo[1,5-a]pyrazine-1-carboxamide], for which the “+/− HCB2” value is reported as “+”.
Still for that read-out and setting: the entry for `COC(=O)[C@@H](NC(=O)c1nc(-c2ccccc2)n2c1CNCCC2)C(C)(C)C` [Compound 465, (S)-methyl 3,3-dimethyl-2-(3-phenyl-6,7,8,9-tetrahydro-5H-imidazo[1,5-a][1,4]diazepine-1-carboxamido)butanoate] is “+”; for `CNC(=O)[C@H](CC(C)C)NC(=O)c1nc(-c2cc(Cl)ccc2F)n2c1CN(C)CCC2` [Compound 536, (S)-3-(5-chloro-2-fluorophenyl)-8-methyl-N-(4-methyl-1-(methylamino)-1-oxopentan-2-yl)-6,7,8,9-tetrahydro-5H-imidazo[1,5-a][1,4]diazepine-1-carboxamide] it is “+”; for `CNC(=O)[C@@H](NC(=O)c1nc(/C=C/Cc2ccccc2)n2c1CN(C)CCC2)C(C)(C)C` [Compound 458, (S,E)-N-(3,3-dimethyl-1-(methylamino)-1-oxobutan-2-yl)-8-methyl-3-(3-phenylprop-1-enyl)-6,7,8,9-tetrahydro-5H-imidazo[1,5-a][1,4]diazepine-1-carboxamide] it is “−”.
Consider `Cc1noc([C@@H](NC(=O)c2nc(-c3ccccc3)n3c2CNCC3)C(C)(C)C)n1` [Compound 282, (S)-N-(2,2-dimethyl-1-(3-methyl-1,2,4-oxadiazol-5-yl)propyl)-3-phenyl-5,6,7,8-tetrahydroimidazo[1,5-a]pyrazine-1-carboxamide], for which the “+/− HCB2” value is reported as “+”.
Take `CNC(=O)[C@@H](NC(=O)c1nc(-c2ccccn2)n2c1CN(C)CCC2)C(C)(C)C` [Compound 395, (S)-N-(3,3-dimethyl-1-(methylamino)-1-oxobutan-2-yl)-8-methyl-3-(pyridin-2-yl)-6,7,8,9-tetrahydro-5H-imidazo[1,5-a][1,4]diazepine-1-carboxamide]: the “+/− HCB2” value is reported as “+”.
The same measure, in the same setting: the entry for `O=C(NC1CCCCC1)c1nc(-c2ccccc2)n2c1CN(CC1CCOC1)CC2` (centres unmarked) [Compound 141, N-cyclohexyl-3-phenyl-7-((tetrahydrofuran-3-yl)methyl)-5,6,7,8-tetrahydroimidazo[1,5-a]pyrazine-1-carboxamide] is “+”.
The same measure, in the same setting: for `CNC(=O)[C@@H](NC(=O)c1nc(-c2cc(F)cc(F)c2)n2c1CN(C)CC2)C(C)(C)C` [Compound 262, (S)-3-(3,5-difluorophenyl)-N-(3,3-dimethyl-1-(methylamino)-1-oxobutan-2-yl)-7-methyl-5,6,7,8-tetrahydroimidazo[1,5-a]pyrazine-1-carboxamide] the value was “+”; for `CNC(=O)[C@@H](NC(=O)c1nc(C2=CCNCC2)n2c1CN(C)CC2)C(C)(C)C` [Compound 274, (S)-N-(3,3-dimethyl-1-(methylamino)-1-oxobutan-2-yl)-7-methyl-3-(1,2,3,6-tetrahydropyridin-4-yl)-5,6,7,8-tetrahydroimidazo[1,5-a]pyrazine-1-carboxamide], “−”.

The same experiment, now with this note: groups >100 nM-10 μM and >10 μM; cAMP, CHO-K1 hCB2; read-out: EC50 HCB2.
Consider `CNC(=O)c1ccccc1NC(=O)c1nc(-c2ccc(Cl)cc2F)n2c1CN(C)CC2` [Compound 217], for which the EC50 was > 10000 nM.

These data come from patent US7517874B2 (priority 2007, dated 2009).
